Data reported in PubChem BioAssay AID686978 (National Center for Advancing Translational Sciences (NCATS), 2013).
The whole screen tested about 420,000 compounds, of which about 64,000 (15%) were called active. Inconclusive means that the source gave no clear call. Such entries were picked first, then a sample of the others. The call rests on the fitted dose curve; in most records, active means well fitted inhibition curve with a large enough effect; inconclusive means small, poorly fitted or top-dose-only effect; inactive means flat fitted curve, though single readings scatter. No potency is given beside an inconclusive call; the fits are too rough.

Assay: qHTS for Inhibitors of human tyrosyl-DNA phosphodiesterase 1 (TDP1): qHTS in cells in absence of CPT; further: nearly all actives have a fitted effect of over 55% in size
Details: DT40 Tdp1-/- hTDP1 cells, no CPT, ATP luminescence, 48 h; series mostly up to 46.2 µM
How it was run: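 Cells were dispensed at 400 per well, compounds added by pin tool, plates incubated ≥48 hr at 37 °C, then CellTiter-Glo added for 30 min at room temperature before luminescence reading. Line: DT40 Tdp1-/- complemented with hTDP1; camptothecin omitted.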
Potency means the concentration at half of the fitted maximal effect; tags describe the fitted curve by direction and shape.

Structure (SMILES)	Potency
CCCCn1c(=S)[nH]c2cc(S(=O)(=O)N3CCOCC3)ccc21	inconclusive [inhibitor, single point]
COC(=O)c1c(NC(=O)C2(C)Cc3ccccc3C(=O)O2)sc2c1CCCC2 (configuration not stated)	inconclusive [inhibitor, single point]
O=C(Cc1ccc2c(c1)CCCC2)Nc1ccc2ccccc2c1	inactive
COc1cc(-c2nnc(COC(=O)c3ccc([N+](=O)[O-])o3)o2)cc(OC)c1OC	inconclusive [inhibitor, single point]
Cc1ccc(C)c(NC(=O)c2ccc3c(c2)CCN3S(=O)(=O)c2ccccc2)c1	inconclusive [inhibitor, single point]
Cc1ccc(Sc2c(C)nn(C(=O)CNS(=O)(=O)c3ccc(F)cc3)c2C)cc1	inconclusive [inhibitor, single point]
COc1cc([N+](=O)[O-])ccc1-c1ccc(/C=N/NC(=O)OC(C)(C)C)o1	inconclusive [inhibitor, full curve]
O=C(Nc1ccc(Cl)c(C(F)(F)F)c1)C(Cc1ccccc1)NS(=O)(=O)c1cccc2nsnc12 (configuration not stated)	inconclusive [inhibitor, single point]
O=C(COc1ccc(Cl)cc1)NCc1ccc(F)cc1	inconclusive [inhibitor, partial curve]
N#Cc1cn(-c2ccccc2)nc1-c1ccccc1	inconclusive [inhibitor, partial curve]
Cc1ccc2[nH]c(=O)c(CN(C(=O)c3cccc([N+](=O)[O-])c3)C(C)(C)C)cc2c1	inconclusive [inhibitor, single point]
CCN(C[C@H]1N[C@@](Cc2ccccc2)(C(=O)OC)[C@H]2C(=O)N(Cc3ccccc3)C(=O)[C@@H]12)S(=O)(=O)c1ccc(C)cc1	active: 20.6 µM
CCc1cc2c(cc3c(=O)n(CC(=O)NCCc4ccccc4)ncn32)s1	inactive
COC(=O)c1cc(NC(=O)c2cccc(C(F)(F)F)c2)c(=O)oc1C/C=N/OCc1cccc(Cl)c1Cl	inconclusive [inhibitor, single point]
CCC(C)NC(=O)CC1Oc2ccc(Cl)cc2NC1=O (configuration not stated)	inconclusive [inhibitor, full curve, poor fit]
O=C(NNC(=O)c1ccc(Br)s1)c1ccc(F)c(S(=O)(=O)N2CCOCC2)c1	inactive
CC(C)c1ccc(C(C)NC(=O)C2CCCC2)cc1 (configuration not stated)	inconclusive [inhibitor, partial curve, poor fit]
CNCCN(C)c1nc(-c2cccs2)nc2ccccc12	active: 22.4 µM
Nc1cccc(N=[N+]([O-])c2cccc(N)c2)c1	inactive
CC(C)C1Cc2nc(Cl)c(C#N)cc2CO1 (configuration not stated)	inactive
C[C@H]1NCc2cc(-c3ccc4c(=O)c(C(=O)O)cn(C5CC5)c4c3OC(F)F)ccc21	inactive

Structure (SMILES)	Potency
CCCOc1ccc(NC(=O)CC2C(=O)Nc3ccccc3N2CC(=O)N2CCCC2)cc1 (configuration not stated)	inconclusive [inhibitor, single point]
CCc1ccc(C2c3c(-c4ccccc4)n[nH]c3C(=O)N2c2ccc(C(=O)O)cc2)cc1 (configuration not stated)	inactive
CC1CC(C)CN(C(=O)CCc2nnc3ccc(N4CCCCC4)nn23)C1 (configuration not stated)	inconclusive [inhibitor, single point]
CC(=O)Nc1cccc(-c2ccnc3c2CC(C)(C(=O)Nc2cccnc2)O3)c1 (configuration not stated)	inactive
OC(CNCc1cccc(Cl)c1)c1ccccc1 (configuration not stated)	inconclusive [inhibitor, partial curve]
O=C(Cn1c(=O)oc2ccccc21)Nc1cccc(Cl)c1	inconclusive [inhibitor, single point]
CCOc1ccc(NC(=O)C2CCCN2S(=O)(=O)c2ccc3c(c2)C(C)(C)C(=O)N3C)cc1 (configuration not stated)	inconclusive [inhibitor, single point]
O=C(CN1N=C(c2ccccc2)CCC1=O)NCc1ccc(F)cc1Cl	inconclusive [inhibitor, single point]
CCN(CC)c1c([N+](=O)[O-])c(=O)n(C)c2ccccc12	inconclusive [inhibitor, partial curve, poor fit]
O=C(NCc1ccco1)c1ccc(-c2ccc3nccn3c2)cc1	inconclusive [inhibitor, single point]
CCC(C)c1ccccc1N1CC(C(=O)NCCc2ccc(OC)c(OC)c2)CC1=O (configuration not stated)	inconclusive [inhibitor, single point]
COc1ccccc1C(=O)Nc1ccnn1C1CCN(C/C=C/c2ccc(F)cc2)CC1	inconclusive [inhibitor, single point]
O=C1C=CC(=O)N1c1cccc(-c2ccccc2)c1	active: 0.731 µM
CCCCN1CC(COCc2ccccc2)Oc2cccc(OCc3ccc(OC)cc3)c2S1(=O)=O (configuration not stated)	active: 4.11 µM
CC(=O)c1c(C)oc2ccc(NS(=O)(=O)c3cccs3)cc12	inconclusive [inhibitor, single point]
CCCc1nc2ccccc2c(C(=O)OCC(=O)Nc2cccc(S(=O)(=O)N3CCOCC3)c2)c1CC	inconclusive [inhibitor, single point]
COc1cccc(-n2cc(C(=O)NCc3ccc(C)cc3)c3ccccc3c2=O)c1	inconclusive [inhibitor, single point]
COc1ccc(C(=O)N2CCC3(CC2)CCN(c2ccccn2)CC3)cc1	inconclusive [inhibitor, partial curve, poor fit]
O=C(NC1CCCCC1)N1CCCCCCC1	inactive
Cc1nn(Cc2c(Cl)cccc2Cl)c(C)c1NC(=O)c1cnn2c(C(F)F)cc(-c3ccccc3)nc12	inconclusive [inhibitor, single point]
CC(C)CC1C(=O)N(Cc2cn(Cc3ccco3)nn2)CCS(=O)(=O)N1Cc1ccc(-c2ccc(Cl)c(Cl)c2)cc1 (configuration not stated)	active: 20.6 µM
